# Reference: the supplement of paper PMC8728848
# The list shows a part of the results.
# B1: LFA (Limax flavus) (protein)
# chain: MSVLFLAASFLLLASFELVAAQGCPRQDPGDWIVIQRRLNADVNFYRGWADYKHGFGDLRCNFWLGNEKIHQLTSHGRYKLRVEFTFNNKSYFAEYSTFKILGEADKYKLQVGGYSGNAGDALTFHNGMAFSTNDRDNDADSIDCAKVYHGAWWYKTCHESNLNGKWGSKKYGEGLNWKAKTTFTATATSSLLKIKALK
# Assays:
# Experiment in all cases: glycan array binding signal (z-score within array); higher = stronger binding
# Conditions in all cases: glycan notation: IUPAC condensed, linker removed
# [1] = target: Neu5Ac(a2-6)Gal(b1-4)GlcNAc(b1-2)Man(a1-3)[Man(a1-6)]Man(b1-4)GlcNAc(b1-4)GlcNAc
# Procedure, shortened: (§1)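 Columns mapping to the same glycan were averaged after glycan names were converted to IUPAC-condensed notation. The data come from 3228 arrays in the Consortium for Functional Glycomics database, limited to those with an available protein sequence. Binding is reported as a within-array Z-score averaged across arrays of one protein sequence and across linkers.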
# [2] = target: Neu5Ac(a2-6)Gal(b1-4)GlcNAc(b1-2)Man(a1-3)[Neu5Ac(a2-3)Gal(b1-4)GlcNAc(b1-2)Man(a1-6)]Man(b1-4)GlcNAc(b1-4)GlcNAc
# Procedure, shortened: as §1
# [3] = target: Neu5Ac(a2-6)Gal(b1-4)GlcNAc(b1-2)Man(a1-3)[Neu5Ac(a2-6)Gal(b1-4)GlcNAc(b1-2)Man(a1-6)]Man(b1-4)GlcNAc(b1-4)GlcNAc
# Procedure, shortened: as §1
# [4] = target: Neu5Ac(a2-6)Gal(b1-4)GlcNAc(b1-2)Man(a1-3)[Neu5Ac(a2-6)Gal(b1-4)GlcNAc(b1-2)Man(a1-6)]Man(b1-4)GlcNAc(b1-4)[Fuc(a1-6)]GlcNAc
# Procedure, shortened: as §1
# [5] = target: Neu5Ac(a2-6)Gal(b1-4)GlcNAc(b1-2)Man(a1-6)Man(b1-4)GlcNAc(b1-4)GlcNAc
# Procedure, shortened: as §1
# [6] = target: Neu5Ac(a2-6)Gal(b1-4)GlcNAc(b1-2)Man(a1-6)[Gal(b1-4)GlcNAc(b1-2)Man(a1-3)]Man(b1-4)GlcNAc(b1-4)GlcNAc
# Procedure, shortened: as §1
# [7] = target: Neu5Ac(a2-6)Gal(b1-4)GlcNAc(b1-2)Man(a1-6)[GlcNAc(b1-2)Man(a1-3)]Man(b1-4)GlcNAc(b1-4)GlcNAc
# Procedure, shortened: as §1
# [8] = target: Neu5Ac(a2-6)Gal(b1-4)GlcNAc(b1-2)Man(a1-6)[Man(a1-3)]Man(b1-4)GlcNAc(b1-4)GlcNAc
# Procedure, shortened: as §1
# [9] = target: Neu5Ac(a2-6)Gal(b1-4)GlcNAc(b1-2)[Neu5Ac(a2-6)Gal(b1-4)GlcNAc(b1-4)]Man(a1-3)[GlcNAc(b1-4)][Neu5Ac(a2-6)Gal(b1-4)GlcNAc(b1-2)[Neu5Ac(a2-6)Gal(b1-4)GlcNAc(b1-6)]Man(a1-6)]Man(b1-4)GlcNAc(b1-4)GlcNAc
# Procedure, shortened: as §1
# [10] = target: Neu5Ac(a2-6)Gal(b1-4)GlcNAc(b1-2)[Neu5Ac(a2-6)Gal(b1-4)GlcNAc(b1-4)]Man(a1-3)[GlcNAc(b1-4)][Neu5Ac(a2-6)Gal(b1-4)GlcNAc(b1-4)Man(a1-6)]Man(b1-4)GlcNAc(b1-4)GlcNAc
# Procedure, shortened: as §1
# [11] = target: Neu5Ac(a2-6)Gal(b1-4)GlcNAc(b1-2)[Neu5Ac(a2-6)Gal(b1-4)GlcNAc(b1-6)]Man(a1-6)[Neu5Ac(a2-6)Gal(b1-4)GlcNAc(b1-2)Man(a1-3)][GlcNAc(b1-4)]Man(b1-4)GlcNAc(b1-4)GlcNAc
# Procedure, shortened: as §1
# [12] = target: Neu5Ac(a2-6)Gal(b1-4)GlcNAc(b1-3)Gal(b1-3)GlcNAc
# Procedure, shortened: as §1
# [13] = target: Neu5Ac(a2-6)Gal(b1-4)GlcNAc(b1-3)Gal(b1-4)GlcNAc
# Procedure, shortened: as §1
# [14] = target: Neu5Ac(a2-6)Gal(b1-4)GlcNAc(b1-3)Gal(b1-4)GlcNAc(b1-2)Man(a1-3)[Neu5Ac(a2-6)Gal(b1-4)GlcNAc(b1-3)Gal(b1-4)GlcNAc(b1-2)Man(a1-6)]GalNAc
# Procedure, shortened: as §1
# [15] = target: Neu5Ac(a2-6)Gal(b1-4)GlcNAc(b1-3)Gal(b1-4)GlcNAc(b1-3)Gal(b1-4)GlcNAc
# Procedure, shortened: as §1
# [16] = target: Neu5Ac(a2-6)Gal(b1-4)GlcNAc(b1-3)Gal(b1-4)GlcNAc(b1-3)Gal(b1-4)GlcNAc(b1-2)Man(a1-3)[Neu5Ac(a2-6)Gal(b1-4)GlcNAc(b1-3)Gal(b1-4)GlcNAc(b1-3)Gal(b1-4)GlcNAc(b1-2)Man(a1-6)]GalNAc
# Procedure, shortened: as §1
# [17] = target: Neu5Ac(a2-6)Gal(b1-4)GlcNAc(b1-3)Gal(b1-4)GlcNAc(b1-3)GalNAc
# Procedure, shortened: as §1
# [18] = target: Neu5Ac(a2-6)Gal(b1-4)GlcNAc(b1-3)Gal(b1-4)GlcNAc(b1-3)[Neu5Ac(a2-6)Gal(b1-4)GlcNAc(b1-3)Gal(b1-4)GlcNAc(b1-6)]GalNAc
# Procedure, shortened: as §1
# [19] = target: Neu5Ac(a2-6)Gal(b1-4)GlcNAc(b1-3)Gal(b1-4)GlcNAc(b1-6)[Gal(b1-3)]GalNAc
# Procedure, shortened: as §1
# [20] = target: Neu5Ac(a2-6)Gal(b1-4)GlcNAc(b1-3)Gal(b1-4)[Fuc(a1-3)]GlcNAc(b1-3)Gal(b1-4)[Fuc(a1-3)]GlcNAc
# Procedure, shortened: as §1
# [21] = target: Neu5Ac(a2-6)Gal(b1-4)GlcNAc(b1-3)GalNAc
# Procedure, shortened: as §1
# [22] = target: Neu5Ac(a2-6)Gal(b1-4)GlcNAc(b1-3)[Neu5Ac(a2-6)Gal(b1-4)GlcNAc(b1-6)]GalNAc
# Procedure, shortened: as §1
# [23] = target: Neu5Ac(a2-6)Gal(b1-4)GlcNAc(b1-6)GalNAc
# Procedure, shortened: as §1
# [24] = target: Neu5Ac(a2-6)Gal(b1-4)GlcNAc(b1-6)[Gal(b1-3)GlcNAc(b1-3)]Gal(b1-4)Glc
# Procedure, shortened: as §1
# [25] = target: Neu5Ac(a2-6)Gal(b1-4)GlcNAc(b1-6)[Gal(b1-3)]GalNAc
# Procedure, shortened: as §1
# [26] = target: Neu5Ac(a2-6)Gal(b1-4)GlcNAc6S
# Procedure, shortened: as §1
# Neu5Ac(a2-6)GalNAc = target: Neu5Ac(a2-6)GalNAc
# Procedure, shortened: as §1
# [27] = target: Neu5Ac(a2-6)GalNAc(b1-4)GlcNAc
# Procedure, shortened: as §1
# [28] = target: Neu5Ac(a2-6)GalNAc(b1-4)GlcNAc6S
# Procedure, shortened: as §1
# [29] = target: Neu5Ac(a2-6)GlcNAc(b1-4)GlcNAc
# Procedure, shortened: as §1
# [30] = target: Neu5Ac(a2-6)GlcNAc(b1-4)GlcNAc(b1-4)GlcNAc
# Procedure, shortened: as §1
binder,measurement,setting,value
B1,glycan array binding signal (z-score),[1],-0.294
same,glycan array binding signal (z-score),[2],-0.357
same,glycan array binding signal (z-score),[3],-0.253
same,glycan array binding signal (z-score),[4],-0.239
same,glycan array binding signal (z-score),[5],-0.199
same,glycan array binding signal (z-score),[6],0.028
same,glycan array binding signal (z-score),[7],-0.297
same,glycan array binding signal (z-score),[8],-0.185
same,glycan array binding signal (z-score),[9],-0.31
same,glycan array binding signal (z-score),[10],-0.274
same,glycan array binding signal (z-score),[11],-0.113
same,glycan array binding signal (z-score),[12],-0.402
same,glycan array binding signal (z-score),[13],-0.31
same,glycan array binding signal (z-score),[14],-0.113
same,glycan array binding signal (z-score),[15],-0.306
same,glycan array binding signal (z-score),[16],1.62
same,glycan array binding signal (z-score),[17],-0.211
same,glycan array binding signal (z-score),[18],2.5
same,glycan array binding signal (z-score),[19],0.2
same,glycan array binding signal (z-score),[20],-0.033
same,glycan array binding signal (z-score),[21],-0.064
same,glycan array binding signal (z-score),[22],-0.163
same,glycan array binding signal (z-score),[23],-0.113
same,glycan array binding signal (z-score),[24],-0.3
same,glycan array binding signal (z-score),[25],-0.227
same,glycan array binding signal (z-score),[26],-0.325
same,glycan array binding signal (z-score),Neu5Ac(a2-6)GalNAc,-0.345
same,glycan array binding signal (z-score),[27],-0.35
same,glycan array binding signal (z-score),[28],-0.267
same,glycan array binding signal (z-score),[29],-0.042
same,glycan array binding signal (z-score),[30],0.348
